The list shows a part of the results.
Key:
Experiment in all cases: glycan array binding signal (z-score within array); higher = stronger binding
Conditions in all cases: glycan notation: IUPAC condensed, linker removed; mutation: N224Q
[1] = biological target: Fuc(a1-2)Gal(b1-4)GlcNAc(b1-3)Gal(b1-4)GlcNAc(b1-2)Man(a1-3)[Fuc(a1-2)Gal(b1-4)GlcNAc(b1-3)Gal(b1-4)GlcNAc(b1-2)Man(a1-6)]Man(b1-4)GlcNAc(b1-4)GlcNAc
Method in brief: (§1)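 From the Consortium for Functional Glycomics database, 3228 arrays were curated, keeping only those whose protein sequence was available. Binding is given as a within-array Z-score averaged across arrays sharing a protein sequence and across linkers. Negative Z-scores can be read as non-binding.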

[2] = biological target: Fuc(a1-2)Gal(b1-4)GlcNAc(b1-3)Gal(b1-4)GlcNAc(b1-3)Gal(b1-4)GlcNAc
Method in brief: as §1

[3] = biological target: Fuc(a1-2)Gal(b1-4)GlcNAc(b1-3)GalNAc
Method in brief: as §1

[4] = biological target: Fuc(a1-2)Gal(b1-4)GlcNAc(b1-3)[Fuc(a1-2)Gal(b1-4)GlcNAc(b1-6)]GalNAc
Method in brief: as §1

[5] = biological target: Fuc(a1-2)Gal(b1-4)GlcNAc(b1-3)[Fuc(a1-3)[Gal(b1-4)]GlcNAc(b1-6)]Gal(b1-4)Glc
Method in brief: as §1

[6] = biological target: Fuc(a1-2)Gal(b1-4)GlcNAc(b1-6)GalNAc
Method in brief: as §1

[7] = biological target: Fuc(a1-2)Gal(b1-4)GlcNAc6S
Method in brief: as §1

[8] = biological target: Fuc(a1-2)Gal(b1-4)[Fuc(a1-3)]GlcNAc
Method in brief: as §1

[9] = biological target: Fuc(a1-2)Gal(b1-4)[Fuc(a1-3)]GlcNAc(b1-2)Man(a1-3)[Fuc(a1-2)Gal(b1-4)[Fuc(a1-3)]GlcNAc(b1-2)Man(a1-6)]Man(b1-4)GlcNAc(b1-4)[Fuc(a1-6)]GlcNAc
Method in brief: as §1

[10] = biological target: Fuc(a1-2)Gal(b1-4)[Fuc(a1-3)]GlcNAc(b1-2)[Fuc(a1-2)Gal(b1-4)[Fuc(a1-3)]GlcNAc(b1-4)]Man(a1-3)[Fuc(a1-2)Gal(b1-4)[Fuc(a1-3)]GlcNAc(b1-2)Man(a1-6)]Man(b1-4)GlcNAc(b1-4)GlcNAc
Method in brief: as §1

[11] = biological target: Fuc(a1-2)Gal(b1-4)[Fuc(a1-3)]GlcNAc(b1-3)Gal(b1-4)[Fuc(a1-3)]GlcNAc
Method in brief: as §1

[12] = biological target: Fuc(a1-2)Gal(b1-4)[Fuc(a1-3)]GlcNAc(b1-3)Gal(b1-4)[Fuc(a1-3)]GlcNAc(b1-3)Gal(b1-4)[Fuc(a1-3)]GlcNAc
Method in brief: as §1

[13] = biological target: Fuc(a1-2)Gal(b1-4)[Fuc(a1-3)]GlcNAc(b1-3)GalNAc
Method in brief: as §1

[14] = biological target: Fuc(a1-2)Gal(b1-4)[Fuc(a1-3)]GlcNAc(b1-3)[Neu5Ac(a2-6)Gal(b1-4)GlcNAc(b1-6)]Gal(b1-4)Glc
Method in brief: as §1

[15] = biological target: Fuc(a1-2)Gal3S(b1-4)GlcNAc
Method in brief: as §1

[16] = biological target: Fuc(a1-2)Gal6S(b1-3)GlcNAc
Method in brief: as §1

[17] = biological target: Fuc(a1-2)Gal6S(b1-3)GlcNAc6S
Method in brief: as §1

Fuc(a1-2)Gal6S(b1-4)Glc = biological target: Fuc(a1-2)Gal6S(b1-4)Glc
Method in brief: as §1

[18] = biological target: Fuc(a1-2)Gal6S(b1-4)Glc6S
Method in brief: as §1

Fuc(a1-2)[Gal(a1-3)]Gal = biological target: Fuc(a1-2)[Gal(a1-3)]Gal
Method in brief: as §1

[19] = biological target: Fuc(a1-2)[Gal(a1-3)]Gal(b1-3)GalNAc
Method in brief: as §1

[20] = biological target: Fuc(a1-2)[Gal(a1-3)]Gal(b1-3)GalNAc(b1-3)Gal(a1-4)Gal(b1-4)Glc
Method in brief: as §1

[21] = biological target: Fuc(a1-2)[Gal(a1-3)]Gal(b1-3)GlcNAc
Method in brief: as §1

[22] = biological target: Fuc(a1-2)[Gal(a1-3)]Gal(b1-3)GlcNAc(b1-2)Man(a1-3)[Fuc(a1-2)[Gal(a1-3)]Gal(b1-3)GlcNAc(b1-2)Man(a1-6)]Man(b1-4)GlcNAc(b1-4)GlcNAc
Method in brief: as §1

[23] = biological target: Fuc(a1-2)[Gal(a1-3)]Gal(b1-3)GlcNAc(b1-2)Man(a1-3)[Fuc(a1-2)[Gal(a1-3)]Gal(b1-3)GlcNAc(b1-2)Man(a1-6)]Man(b1-4)GlcNAc(b1-4)[Fuc(a1-6)]GlcNAc
Method in brief: as §1

[24] = biological target: Fuc(a1-2)[Gal(a1-3)]Gal(b1-3)GlcNAc(b1-3)GalNAc
Method in brief: as §1

[25] = biological target: Fuc(a1-2)[Gal(a1-3)]Gal(b1-3)GlcNAc(b1-6)GalNAc
Method in brief: as §1

[26] = biological target: Fuc(a1-2)[Gal(a1-3)]Gal(b1-4)Glc
Method in brief: as §1

[27] = biological target: Fuc(a1-2)[Gal(a1-3)]Gal(b1-4)GlcNAc
Method in brief: as §1

[28] = biological target: Fuc(a1-2)[Gal(a1-3)]Gal(b1-4)GlcNAc(b1-2)Man
Method in brief: as §1

B1: AAL (Aleuria aurantia) (protein)
chain: MPTEFLYTSKIAAISWAATGGRQQRVYFQDLNGKIREAQRGGDNPWTGGSSQNVIGEAKLFSPLAAVTWKSAQGIQIRVYCVNKDNILSEFVYDGSKWITGQLGSVGVKVGSNSKLAALQWGGSESAPPNIRVYYQKSNGSGSSIHEYVWSGKWTAGASFGSTVPGTGIGATAIGPGRLRIYYQATDNKIREHCWDSNSWYVGGFSASASAGVSIAAISWGSTPQIRVYWQKGREELYEAAYGGSWNTPGQIKDASRPTPSLPDTFIAANSSGNIDISVFFQASGVSLQQWQWISGKGWSIGAVVPTGTPAGW
[1]
  glycan array binding signal (z-score): 6.34
[2]
  glycan array binding signal (z-score): 2.65
[3]
  glycan array binding signal (z-score): -0.108
[4]
  glycan array binding signal (z-score): 0.22
[5]
  glycan array binding signal (z-score): -0.197
[6]
  glycan array binding signal (z-score): 2.68
[7]
  glycan array binding signal (z-score): 1.08
[8]
  glycan array binding signal (z-score): 3.69
[9]
  glycan array binding signal (z-score): 1.89
[10]
  glycan array binding signal (z-score): 0.004
[11]
  glycan array binding signal (z-score): 3.57
[12]
  glycan array binding signal (z-score): 3.95
[13]
  glycan array binding signal (z-score): -0.294
[14]
  glycan array binding signal (z-score): -0.308
[15]
  glycan array binding signal (z-score): 1.2
[16]
  glycan array binding signal (z-score): -0.079
[17]
  glycan array binding signal (z-score): -0.305
Fuc(a1-2)Gal6S(b1-4)Glc
  glycan array binding signal (z-score): 3.32
[18]
  glycan array binding signal (z-score): 1.59
Fuc(a1-2)[Gal(a1-3)]Gal
  glycan array binding signal (z-score): 2.38
[19]
  glycan array binding signal (z-score): -0.302
[20]
  glycan array binding signal (z-score): -0.306
[21]
  glycan array binding signal (z-score): -0.311
[22]
  glycan array binding signal (z-score): -0.289
[23]
  glycan array binding signal (z-score): -0.235
[24]
  glycan array binding signal (z-score): -0.287
[25]
  glycan array binding signal (z-score): -0.305
[26]
  glycan array binding signal (z-score): -0.295
[27]
  glycan array binding signal (z-score): -0.307
[28]
  glycan array binding signal (z-score): -0.285
